According to PubChem BioAssay AID1671194 (National Center for Advancing Translational Sciences (NCATS), 2021):
About 240 (0.17%) of roughly 140,000 compounds were called active. This list was built around the results that the source calls inconclusive (neither active nor inactive); the mix of calls is not that of the screen. The call rests on the fitted dose curve; in most records, active means well fitted inhibition curve with a large enough effect; inconclusive means small, poorly fitted or top-dose-only effect; inactive means no such curve, though single readings can be large or run the other way. Potencies beside an inconclusive call are fits to weak or partial responses and may not hold up.

test: Primary qHTS assay for inhibitors of alpha-synuclein gene (SNCA) expression; conditions: HEK-293 SNCA-luciferase knock-in, luminescence, 24 h; series mostly up to 57.2 µM; further: nearly all actives have a fitted effect of over 45% in size
Potency means the concentration at half of the fitted maximal effect; tags describe the fitted curve by direction and shape.

SMILES	Potency
CCOC(=O)C1CCN(C(=O)c2cc(-c3ccc(F)cc3)nc3c2cnn3C)CC1	inconclusive: 8.91 µM [inhibitor, full curve, poor fit]
O=C(NCC1CCCO1)c1cc2c(=O)[nH]c(-c3ccccc3)cn2n1 (centres undefined)	inactive
Cc1ccccc1NC(=O)Nc1ccnn1C1CCN(C(=O)CCN)CC1	inconclusive: 3.16 µM [inhibitor, full curve]
CCCN(c1ccccc1CC)S(=O)(=O)c1ccc2c(c1)CC(C)N2C(=O)C1CC1 (centres undefined)	inconclusive: 39.8 µM [inhibitor, single point]
Cc1ccc(-c2nnc3ccc(NCCN(C)C)nn23)nc1	inconclusive: 3.98 µM [inhibitor, full curve]
CCOC(=O)c1cc(-c2ccccc2)n(CC(=O)N(C)c2ccc(OC)cc2)c1C	inconclusive: 39.8 µM [inhibitor, single point]
Cc1ccc(C(=O)N2CCN(c3nccc(Nc4ccccc4F)n3)CC2)cc1	inconclusive: 39.8 µM [inhibitor, single point]
CCC(C(=O)NCc1nnc2ccc(-c3ccccc3)nn12)c1ccccc1 (centres undefined)	inactive
CC1=C[C@@H](CNCC(C)C)[C@H](C(C)C)C[C@H]1Cc1nc2c(C)cccc2[nH]1	inconclusive: 56.2 µM [inhibitor, single point]
O=C(c1cc(C2CC2)nc2c1c(C1CCCN1)nn2-c1ccccc1)N1CCOCC1 (centres undefined)	inconclusive: 35.5 µM [inhibitor, single point]
O=C(c1ccc(Oc2ccccc2)cc1)N1CCC2OCCN(c3ccccc3)C(=O)C2C1 (centres undefined)	inconclusive: 5.01 µM [inhibitor, single point]
CC(C)(C)C(Cn1ccnc1)NC(=O)c1cc(COc2ccc3c(c2)CCCC3)on1 (centres undefined)	inconclusive: 39.8 µM [inhibitor, single point]
CC(=O)Nc1cc(NC(C)=O)cc(-c2nc3ccccc3[nH]2)c1	inconclusive: 20 µM [inhibitor, partial curve, poor fit]
Cc1cccc(NC(=O)N2CCc3c(C(=O)N(C)Cc4ccco4)cccc32)c1	inactive
COc1ccc(-c2cc3nc4c(c(=O)n3[nH]2)CN(C(=O)c2ccc3[nH]ccc3c2)CC4)cc1	inconclusive: 8.91 µM [inhibitor, partial curve, poor fit]
CCN(CC)C(=O)c1sc2c(c1C)c(=O)n(-c1ccccc1)c(=O)n2CC(=O)Nc1ccc(C)cc1C	inconclusive: 3.98 µM [inhibitor, single point]
Cn1cc(-c2cnc3n[nH]c(-c4ccc5c(c4)OCO5)c3n2)cn1	inconclusive: 0.891 µM [inhibitor, full curve, poor fit]
CN1C(=O)C(CC(=O)NCCCN2CCc3ccccc3C2)=C2CCCCC21 (centres undefined)	inactive
Cc1cc(C)cc(NS(=O)(=O)c2ccc3c(c2)NC(=O)C(C)S3)c1 (centres undefined)	inconclusive: 11.2 µM [inhibitor, partial curve, poor fit]
CCn1c(C(=O)N2CCC(C(=O)NCCc3ccc(OC)cc3OC)CC2)cc2sccc21	inconclusive: 0.355 µM [inhibitor, single point]

SMILES	Potency
CCCS(=O)(=O)N1CCC(CCOC)(NC(=O)C2CC2)CC1	inconclusive: 11.2 µM [inhibitor, partial curve, poor fit]
CC(C)(C)c1ccc(-c2cc(C[C@H]3CNCC[C@H]3CC(=O)Nc3nccs3)no2)cc1	inconclusive: 39.8 µM [inhibitor, single point]
Cc1ccc2nc(-c3ccc(O)cc3)c(Nc3ccc4c(c3)OCCO4)n2c1	inconclusive: 0.794 µM [inhibitor, full curve, poor fit]
CC(C)(C)OC(=O)N1CC(NCc2ccc(-c3ccc(OC(F)(F)F)cc3)cc2)C1	inconclusive: 15.8 µM [inhibitor, partial curve, poor fit]
CCOc1ccc(CC(=O)NC2CCN(c3cc(-c4ccc(F)cc4)[nH]n3)C2)cc1OCC (centres undefined)	inactive
Cc1ccc(CNC(=O)c2ccc3c(c2)nc(C)n3-c2cc(C)cc(C)c2)cc1	inconclusive: 12.6 µM [inhibitor, single point]
COc1ccc(C(=O)N2CCOCC3(CN(Cc4cc(F)cc(F)c4)C3)C2)c(OC)n1	inconclusive: 0.891 µM [inhibitor, full curve, poor fit]
CCCC(=O)N1CCc2nc(OCC)ccc2C1	inconclusive: 39.8 µM [inhibitor, single point]
Clc1ccc(-c2cnc3n2C[C@H](CNC2CCCC2)OC3)cc1	inconclusive: 56.2 µM [inhibitor, single point]
COC(=O)c1ccccc1NC(=O)Cn1c(=O)n(Cc2ccc(C(=O)NCc3ccc4c(c3)OCO4)cc2)c(=O)c2ccccc21	inconclusive: 2.82 µM [inhibitor, partial curve, poor fit]
Cc1ccc(C)n1-c1nnc(N2CCCC(C(=O)Nc3ccc(C(C)C)cc3)C2)s1 (centres undefined)	inconclusive: 39.8 µM [inhibitor, single point]
O=C(NCCc1ccc(Cl)cc1)c1nc2sccn2c1-c1ccccc1	inactive
CS(=O)(=O)c1cnc(NCCCc2ccccc2)nc1C1CCCNC1 (centres undefined)	inactive
COc1ccc(Cl)cc1NC(=O)C1CCCN(S(=O)(=O)c2ccc3c(c2)CCCC(=O)N3)C1 (centres undefined)	inconclusive: 39.8 µM [inhibitor, single point]
COc1ccccc1CNC(=O)[C@H]1CN(C(C)C)C[C@H]1C(=O)O	inactive
COc1cccc(-c2noc(CC3CCN(C(=O)CCCc4ccccc4)CC3)n2)c1	inconclusive: 39.8 µM [inhibitor, single point]
O=C(c1ccccc1F)N1CCN(Cc2ccccc2-c2ccccc2F)CC1	inactive
CC(C)(C)C(=O)N1CCC2(CC1)OCC(C(=O)NCC1CCCO1)N2C(=O)c1ccc(F)cc1 (centres undefined)	inconclusive: 1.26 µM [inhibitor, full curve, poor fit]
CN1CCCC1c1nc(C2CN(C(=O)c3ccsc3)C2)no1 (centres undefined)	inconclusive: 31.6 µM [inhibitor, single point]
